This note sets out measurements from PubChem BioAssay (NCATS).

This is one part of the list. Further columns of the screen follow, without active or inactive calls. Compounds called inactive in the main read-out are mostly missing here.

A short description of this assay: qHTS Assay for Lipid Storage Modulators (AID 1519). Particulars: Drosophila S3 cells, BODIPY lipid droplet/cell ratio, laser cytometry; measured here: lipid channel max response; cells loaded with oleic acid. In short, it runs like this: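 Cells seeded at 5,000 per well were treated with compounds over a concentration series and loaded with oleic acid (400 uM, as added). Lipid droplet fluorescence (488 nm excitation, 500-530 nm channel) was read by laser-scanning cytometry and normalized to 20 uM Triacsin C.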
In the case of `CCCCC(=O)NCCc1c(Cc2ccccc2)[nH]c2ccccc12`, the max response was 43.9%. The result for `COc1ccc2[nH]cc(CCNc3ncncc3-c3ccccc3C)c2c1` reads 12.1%.

For the molecule `COc1ccc(-c2nc3cnc(N4CCOCC4)nc3n(Cc3cccs3)c2=O)cc1`, the max response was determined as 33.9%. As for `C=CC(C)(C)c1[nH]c2ccccc2c1C1=C(O)C(=O)C(c2c[nH]c3c(CC=C(C)C)cccc23)=C(O)C1=O`, the max response worked out at 79.6%. With `COc1cc(/C=C\c2ccc(OC)cc2OC)cc(OC)c1` the figure was 114%. On to `COCC(=O)N1CCC2(CC1)CCN(c1ccc(-c3ccccc3)cc1)CC2`, for which the max response amounted to 24.7%. `COc1ccc(-c2nc3cnc(OC)nc3n(Cc3cccs3)c2=O)cc1`: the max response was found to be 52%. With `COc1ccc(/C=C/C(=O)c2cccs2)cc1OC` the figure was 70.1%. With `Nc1nc2c(c(=O)[nH]1)N=C(CNc1ccc(C(=O)NC(CCC(=O)O)C(=O)O)cc1)CN2` (stereo not drawn), the max response came to 56%.

As to `CCNc1ncc2nc(-c3ccc(Cl)cc3)c(=O)n(Cc3cccs3)c2n1`, the max response was determined as 23.3%. As to `Cc1noc(C)c1-c1nc(NC2CC2)c2ccccc2n1`, the max response is 28%. Turning to `Cc1cnc(CNc2ncncc2-c2ccccc2Cl)cn1`, the max response turned out to be 34.6%. The result for `N#Cc1cccc(-c2cncnc2NCc2ccccc2)c1` reads 31.2%; that for `COCCn1c(=O)cnc2cnc(N3CCNCC3)nc21`, 28.2%. As for `CN(C)c1ccc(-c2cncnc2NCc2cccnc2)cc1`, the max response amounted to 27.1%. Take `COc1ccc(-c2oc3cc(OC)c(OC(C)=O)c(OC)c3c(=O)c2OC)cc1OC(C)=O`: the max response is 67.1%. With `CN(C)c1ncc2nc(CCc3ccccc3)c(=O)n(CCc3ccccc3)c2n1` the figure was 18.5%; with `COc1ccc(Cl)cc1N=Nc1ncc[nH]1`, 148%.
